According to PubChem BioAssay AID624417 (National Center for Advancing Translational Sciences (NCATS), 2012):
In all, about 410,000 compounds went through this assay and about 6,400 (1.6%) were called active. The shares of active, inactive and inconclusive entries below differ from those in the screen. Calls come from the whole dose curve; as a rule, active = well fitted inhibition curve with a large enough effect; inconclusive = small, poorly fitted or top-dose-only effect; inactive = no such curve, though single readings can be large or run the other way. No potency is given beside an inconclusive call; the fits are too rough.

What follows are compounds tested against Glucagon-like peptide 1 receptor (Homo sapiens) (UniProt P43220) (assay: qHTS of GLP-1 Receptor Inverse Agonists (Inhibition Mode)). Details: HEK293 GLP-1R CRE-luciferase, luminescence, 24 h; Potency: GLP-1R form is constitutively active unless noted; series mostly up to 38.3 µM.
Sequence of UniProt P43220 (P43220 whole entry, looked up): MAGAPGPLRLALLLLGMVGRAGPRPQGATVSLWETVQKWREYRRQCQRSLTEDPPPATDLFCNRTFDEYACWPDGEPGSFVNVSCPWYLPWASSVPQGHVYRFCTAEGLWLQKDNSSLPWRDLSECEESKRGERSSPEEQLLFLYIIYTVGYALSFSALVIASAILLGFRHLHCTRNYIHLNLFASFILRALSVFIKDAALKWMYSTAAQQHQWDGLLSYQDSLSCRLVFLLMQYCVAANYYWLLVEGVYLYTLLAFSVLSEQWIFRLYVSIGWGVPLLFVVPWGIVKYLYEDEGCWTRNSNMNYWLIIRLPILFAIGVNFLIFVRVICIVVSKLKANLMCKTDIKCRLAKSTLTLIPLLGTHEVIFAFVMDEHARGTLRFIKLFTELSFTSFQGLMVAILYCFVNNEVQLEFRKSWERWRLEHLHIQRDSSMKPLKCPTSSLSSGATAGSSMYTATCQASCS
Summary of the method: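 GLP-1R inverse agonism mode: basal reporter luminescence in engineered HEK293 cells measured after one day of compound exposure at 37 deg C, with a 12 min room-temperature detection step.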
Note: nearly all actives have a fitted effect of over 55% in size.
Potency is the fitted concentration of half-maximal effect; tags give direction and shape of the fitted curve.

SMILES | Potency
CCCC1=Nc2cc(C(=O)NCCCN(CC)CC)ccc2Sc2ccccc21 | inconclusive [inhibitor, partial curve, poor fit]
CCOc1cc2[nH]c(=S)n(CCCC(=O)N3CCC4(CC3)OCCO4)c(=O)c2cc1OCC | inactive
COc1ccc(Br)cc1C1SCC(=O)Nc2c1c(C)nn2-c1ccccc1C (stereo unspecified) | inconclusive [inhibitor, partial curve, poor fit]
O=C1C2CCN(CC2)[C@@H]1Cc1ccc2ccccc2c1O | inconclusive [inhibitor, full curve, poor fit]
COc1ccc(Cn2c(N)c(C(=O)NCc3ccco3)c3nc4ccccc4nc32)cc1OC | inconclusive [inhibitor, partial curve]
COc1ccc(C2CC(=O)Nc3cc4c(cc32)OCO4)c(OC)c1 (stereo unspecified) | inconclusive [inhibitor, full curve, poor fit]
CC(C)OP(=O)(Oc1ccc(C(O)C(Cl)(Cl)Cl)cc1)OC(C)C (stereo unspecified) | inconclusive [inhibitor, single point]
CCC(=NCCO)c1c(O)n(C2CCCCC2)c(=O)[nH]c1=O | inactive
O=C(CCN1CC=C(c2ccccc2)CC1)NCc1ccccc1 | inconclusive [inhibitor, single point]
CN1CCN(CCC(C#N)(c2ccccc2)c2ccccc2)CC1 | inconclusive [inhibitor, partial curve]
COc1cc(C(=O)N/N=C/c2ccc(OC(=O)N3CCOCC3)cc2)cc(OC)c1OC | inconclusive [inhibitor, full curve]
O=C(COC(=O)Cc1ccccc1)Nc1cc(S(=O)(=O)N2CCOCC2)ccc1N1CCCC1 | inactive
COc1ccc(-n2c(SC)nc3ccccc3c2=O)cc1 | inconclusive [inhibitor, partial curve, poor fit]
C[C@@H]1NCCc2cc(O)c(O)cc21 | inactive
CCN1/C(=C\C=C\C2=[N+](CC)c3ccccc3C2(C)C)C(C)(C)c2ccccc21 | inconclusive [inhibitor, partial curve, poor fit]
COc1cc(C(=O)OC2C[C@H]3CC[C@@H](C2)N3C)ccc1O (stereo partly specified) | inconclusive [inhibitor, single point]
Cc1ccsc1C(=O)C1CCCN(Cc2cnn(C(C)C)c2)C1 (stereo unspecified) | inactive
CNCCc1c[nH]c2ccc(O)cc12 | inactive
Cc1cc(OC(=O)N(C)C)n(-c2ccccc2)n1 | inactive
Oc1c(Cl)cccc1Cc1cc(Cl)cc(Cl)c1O | inconclusive [inhibitor, partial curve, poor fit]
CCOP(=S)(NN(Cc1ccccc1)C(=O)c1ccccc1)OCC | inconclusive [inhibitor, single point]

SMILES | Potency
CC1CCC(C(C)C)C(OC(=O)Cn2c(COc3ccccc3)[n+](C)c3ccccc32)C1 (stereo unspecified) | inconclusive [inhibitor, single point]
Clc1cccc(N2CCNCC2)c1Cl | inconclusive [inhibitor, partial curve]
Cc1ccc(CN2CCCN(Cc3ccccc3C)S2(=O)=O)cc1 | inconclusive [inhibitor, single point]
O=C(NCCSc1c(-c2ccccc2)[nH]c2ccccc12)c1ccc(S(=O)(=O)N2CCOCC2)cc1 | inconclusive [inhibitor, partial curve, poor fit]
COc1cccc(NC(=O)c2cccn(Cc3ccccc3C)c2=O)c1 | inconclusive [inhibitor, partial curve, poor fit]
CCOc1ccc(S(=O)(=O)N(CC(=O)NCCc2ccc(OC)c(OC)c2)c2ccccc2)cc1 | inconclusive [inhibitor, full curve, poor fit]
COc1ccc(C(=O)C2CCCN(Cc3cccc(C)n3)C2)c(OC)c1 (stereo unspecified) | inconclusive [inhibitor, single point]
CC(=O)O[C@@]12CO[C@@H]1C[C@H](O)[C@@]1(C)C(=O)[C@H](O)C3=C(C)[C@@H](O)C[C@@](O)([C@@H](OC(=O)c4ccccc4)C12)C3(C)C (stereo partly specified) | inconclusive [inhibitor, partial curve, poor fit]
CCC(C)n1c(O)c(C=NC(C)c2ccccc2)c(=O)[nH]c1=S (stereo unspecified) | inconclusive [inhibitor, single point]
O=c1[nH]c(=O)n(CCC2=CCCCC2)c(O)c1/C=N/Nc1cccc2ccccc12 | inactive
COc1ccc(-c2ccc3n2Cc2cnnn2-c2ccccc2-3)cc1 | inactive
CC1OC(OC2C(O)CC(OC3C(O)CC(OC4CCC5(C)C(CCC6C5CCC5(C)C(C7=CC(=O)OC7)C(O)CC65O)C4)OC3C)OC2C)CC(O)C1O (stereo unspecified) | inconclusive [inhibitor, full curve, poor fit]
Cc1nc(Cl)sc1C(=O)Nc1ccc2ccccc2c1 | inconclusive [inhibitor, single point]
CCN(CCNc1ccc([N+](=O)[O-])c2cccnc12)S(=O)(=O)c1ccccc1 | inactive
CCC(=O)Nc1ccccc1-c1nc2ccccc2n(C(CC)C(=O)Nc2cccc(Cl)c2)c1=O (stereo unspecified) | inconclusive [inhibitor, single point]
CCCc1nc2ccc(Br)cc2c(=O)n1-c1ccc([N+](=O)[O-])c(C(F)(F)F)c1 | inconclusive [inhibitor, partial curve, poor fit]
Fc1ccc(CNCCc2ccccc2)cc1 | inconclusive [inhibitor, partial curve]
Clc1ccc(OCC#CCN2CCCC2)cc1 | inconclusive [inhibitor, partial curve, poor fit]
COc1cc(C)c(CNCCc2c[nH]c3ccccc23)cc1C | inconclusive [inhibitor, partial curve, poor fit]
O=C(c1cccc(Cl)c1)C1CCCN(Cc2cccc3cnccc23)C1 (stereo unspecified) | inconclusive [inhibitor, single point]
CCCc1nc2ccccc2c(=O)n1-c1ccccc1OC | inconclusive [inhibitor, partial curve, poor fit]

SMILES | Potency
CCC(=NCCc1c[nH]c2ccccc12)c1c(O)n(C)c(=O)n(C)c1=O | inactive
COc1ccc(C(O)P(=O)(Oc2ccccc2)Oc2ccccc2)cc1 (stereo unspecified) | inactive
Fc1ccc(Cn2nnnc2CN2CCC(n3nnc4cc(C(F)(F)F)ccc43)CC2)cc1 | inconclusive [inhibitor, partial curve, poor fit]
O=C1NC(=O)C(=Cc2coc3ccccc3c2=O)C(=O)N1 | inconclusive [inhibitor, partial curve, poor fit]
CN1CCN(Cc2cn(C)c3ccccc23)CC1CCO (stereo unspecified) | inconclusive [inhibitor, partial curve, poor fit]
C=C(C=O)CC1CC(O)[C@]2(C)OC3CC4OC5C[C@]6(C)O[C@]7(C)CCC8OC9C[C@]%10(C)OC%11C(C)=CC(=O)OC%11CC%10OC9C[C@@H](C)C8OC7CC6O[C@]5(C)CC5OC5C4OC3CC2O1 (stereo partly specified) | inconclusive [inhibitor, single point]
Cc1ccccc1-n1nc(C)c2c1NC(=O)CSC2c1ccc(Cl)cc1 (stereo unspecified) | inconclusive [inhibitor, single point]
CCOc1ccc(Cl)cc1CNCCc1ccc(F)cc1 | inconclusive [inhibitor, partial curve, poor fit]
O=C(c1ccc(Cl)cc1)C1CCCN(Cc2cccc3cccnc23)C1 (stereo unspecified) | inconclusive [inhibitor, single point]
COc1cc(Cn2c(=O)oc3ccc(C)cc32)ccc1OC(C)C | inconclusive [inhibitor, single point]
C[C@@H]1CN([C@H](C)CO)C(=O)c2c(c3ccccc3n2C)-c2ccccc2CO[C@@H]1CN(C)Cc1ccc(O)cc1 | inconclusive [inhibitor, single point]
Cc1ccc(-n2c(-c3ccc([N+](=O)[O-])cc3)nc3ccccc3c2=O)cc1 | inconclusive [inhibitor, partial curve, poor fit]
CCOP(=O)(OCC)C(NC(=O)Nc1ccc(C)c(Cl)c1)c1ccccc1 (stereo unspecified) | inconclusive [inhibitor, partial curve, poor fit]
COc1ccc(S(=O)(=O)NCCc2sc3nc(-c4ccc(C)cc4)nn3c2C)cc1F | inconclusive [inhibitor, partial curve, poor fit]
CCc1ccccc1NC(=O)C(CC)Oc1ccccc1-c1nnc(-c2ccccc2)o1 (stereo unspecified) | inconclusive [inhibitor, full curve, poor fit]
O=C(Cn1cc(C(=O)c2ccccc2)c2ccccc21)NCc1ccco1 | inconclusive [inhibitor, partial curve, poor fit]
O=C(NN=Cc1ccc(N(CCCl)CCCl)cc1)c1cccnc1 | inconclusive [inhibitor, full curve]
COC(=O)C1=C(c2ccccc2OCc2ccccc2)C[C@@H]2CC[C@H]1N2C(=O)NC1CCN(Cc2ccccc2)CC1 | inconclusive [inhibitor, partial curve, poor fit]
Nc1c(Br)cc2c3c(cccc13)-c1ccccc1-2 | inconclusive [inhibitor, full curve, poor fit]
